The source of these data is PubChem BioAssay AID488969 (Vanderbilt High Throughput Screening Facility, 2010).

Molecules are shown by their SMILES. Over roughly 110,000 compounds, “z-score” has its median near -0.1; the highest 2% begin near 2. This is one part of the list. Active and inactive are the calls of the source.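 The calls were made as follows: active = z-score in the third read window above 3 or below -3; inactive = the rest.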

This assay deals with Metabotropic glutamate receptor 8 (Rattus norvegicus) (UniProt P70579). As to the kind of experiment: mGluR8 Gi/Go-coupled signaling modulation – cell-based, rat, thallium flux, HTS, primary screen (AID 488969). The conditions noted are these: HEK293 rat mGluR8, GIRK (G protein-gated inwardly rectifying potassium channel) thallium flux, FluoZin2; at 10 µM; stronger effect = higher value; submaximal glutamate (EC20) added with thallium.
UniProt P70579, sequence (P70579 whole entry, looked up): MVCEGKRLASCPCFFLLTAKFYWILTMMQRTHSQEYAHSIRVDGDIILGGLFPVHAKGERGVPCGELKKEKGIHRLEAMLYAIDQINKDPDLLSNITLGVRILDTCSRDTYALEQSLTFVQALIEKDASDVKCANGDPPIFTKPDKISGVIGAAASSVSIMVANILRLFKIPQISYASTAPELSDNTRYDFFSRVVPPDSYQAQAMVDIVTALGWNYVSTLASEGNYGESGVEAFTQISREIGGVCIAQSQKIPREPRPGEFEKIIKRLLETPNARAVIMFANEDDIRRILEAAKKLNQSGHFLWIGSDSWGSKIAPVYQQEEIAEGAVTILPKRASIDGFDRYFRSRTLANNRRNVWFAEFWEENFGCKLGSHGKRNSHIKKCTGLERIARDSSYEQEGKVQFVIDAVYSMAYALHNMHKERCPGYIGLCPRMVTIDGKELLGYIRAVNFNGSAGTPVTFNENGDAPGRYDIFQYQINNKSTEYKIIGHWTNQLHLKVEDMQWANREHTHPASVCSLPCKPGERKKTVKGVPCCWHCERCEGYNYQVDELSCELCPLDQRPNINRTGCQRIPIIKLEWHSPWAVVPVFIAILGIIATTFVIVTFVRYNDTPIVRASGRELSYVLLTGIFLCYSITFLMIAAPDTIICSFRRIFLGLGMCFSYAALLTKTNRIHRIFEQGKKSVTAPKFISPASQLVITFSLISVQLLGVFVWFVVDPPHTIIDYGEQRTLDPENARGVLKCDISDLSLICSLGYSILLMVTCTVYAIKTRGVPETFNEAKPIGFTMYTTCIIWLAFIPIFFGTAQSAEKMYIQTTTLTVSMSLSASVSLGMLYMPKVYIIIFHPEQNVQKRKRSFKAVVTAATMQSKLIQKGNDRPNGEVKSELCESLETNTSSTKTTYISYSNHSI
`CC(C)CC(=O)NCCCCc1ccccc1` returned a z-score of -0.29.
The same measure for `O=C(NCCN1CCN(c2ccccc2)CC1)c1cccn2c(=O)c3ccccc3nc12`: -0.678; for `Cc1cc(C)c2nc(C(F)(F)F)nc(NCCCN3CCCC3=O)c2c1`: -0.00172.
With `O=C1C=C(c2ccccc2)C(O)(c2ccccc2)C1` (centres undefined), the z-score is -0.731.
Take `O=C(CSc1ncnc2c1oc1ccccc12)N1CCN(c2ccccc2)CC1`: the z-score was 1.3.
With `Cc1ccc(C2NC(=O)NC(O)(C(F)(F)F)C2C(=O)c2cccs2)o1` (centres undefined), the z-score is -0.404.
With `CN1C(=O)CSc2ccc(NC(=O)N3CCN(c4ccccn4)CC3)cc21`, the z-score is -0.23.
Molecule `Nc1cc(-c2nn[nH]n2)ccc1F` yielded a z-score of 0.91.
The molecule `COc1ccc(N2CS(=O)(=O)/C(=C/N(C)C)C2=O)cc1` yielded a z-score of 0.0604.
The molecule `COc1cccc(-c2nnc(SCC(=O)Nc3cc(C)ccc3OC)n2N)c1` yielded a z-score of -0.148.
For the molecule `CCCn1c(=O)c2c(C(F)(F)F)cc(-c3ccco3)nc2n(CCC)c1=O`, the z-score is -0.0167.
On to `O=C(/C=C/c1cc2c(cc1Br)OCO2)NCc1ccc(Cl)cc1`, for which the z-score is -0.78.
Turning to `COc1ccc(-n2c(Cc3ccccc3)nnc2SCC(=O)N2CCCc3ccccc32)cc1`, the z-score was -0.107.
`O=C(NC1CCCCC1)C(c1ccc(F)cc1)N(Cc1ccccc1)C(=O)CN1C(=O)c2ccccc2S1(=O)=O` (centres undefined) returned a z-score of -0.103.
With `O=c1sc2ccccc2n1COc1ccc(Cl)cc1`, the z-score is -0.228.
The same measure for `Cc1csc(NC(=O)/C=C/c2ccco2)n1`: 0.157.
`CCc1sc(C(=O)N2CCN(S(C)(=O)=O)CC2)cc1Br` came in with a z-score of 1.03.
In the case of `Cc1cccc(OCC(=O)N/N=C/c2cn[nH]c2-c2ccc(Cl)c(Cl)c2)c1` it was -0.059; in that of `S=C(Nc1cccc(Cl)c1)Nc1ccccc1Oc1ccccc1`, active: 15.4; in that of `Fc1ccccc1NC(=S)N1CCN(Cc2ccccc2)CC1`, -0.181.
In the case of `COCCn1c(=O)[nH]c2cc(C(=O)OC)ccc2c1=O` it was -0.288.
Molecule `COC(=O)c1nc2nc(C)cc(=O)n2[nH]1` displayed a z-score of -0.262.
In turn, `C/C=C/c1ccc(Oc2nnnn2-c2ccc(C(N)=O)cc2)c(OC)c1` registered a z-score of 0.186.
Molecule `Cn1c(C(=O)N2CCN(c3ccc(Cl)cc3)CC2)cc2c(=O)[nH]c3ccccc3c21` yielded a z-score of -1.82.
As to `COc1ccc(-c2csc3[nH]c(=S)n(-c4ccccc4)c(=O)c23)cc1OC`, the z-score was -0.702.
With `Cn1c(Cl)c(C(=O)Nc2ccc(Cl)cc2)c2ccccc21`, the z-score was -0.19.
Turning to `Cc1cc(/C=C(\C#N)C(=O)OCC(=O)NC(=O)NC(C)(C)C)c(C)n1CCC(C)C`, the z-score was determined as 0.318.
`CCCc1cc(C(N)=O)c(NC(C)=O)s1` had a z-score of 0.129.
In the case of `COc1ccc(-c2cc(-n3c(C(F)(F)F)nc4ccccc43)n(CCC#N)n2)cc1` it was -0.215.
`CCN1C(=O)/C(=C/c2cc(C)n(C)c2C)SC1=Nc1ccc(OC)cc1` yielded a z-score of 0.0957.
`O=C(CSc1nnc2ccccn12)NCCN1C(=O)CSC1=O` gave a z-score of 0.57.
On to `CCOC(=O)c1c(NC(C)=O)sc2c(OC)cccc12`, for which the z-score was -0.182.
In turn, `Fc1ccccc1CSc1nnnn1-c1ccc2c(c1)OCO2` had a z-score of -0.141.
With `COCCCNC(=O)CNC(=S)N(Cc1ccccc1F)C1CCCCC1`, the z-score stood at 0.182.
Take `Cc1cc(Nc2cccc(F)c2)nc(NCc2ccccc2)n1`: the z-score was 0.0224.
`CCOC(=O)C1CCN(C(=O)Cc2cccc3ccccc23)CC1` gave a z-score of 0.149.
Take `CC(=O)c1ccc(NC(=S)N2CCC(O)CC2)cc1`: the z-score was -0.123.
In the case of `O=C1c2ccccc2S(=O)(=O)N1CCOc1ccccc1` it was -0.253; in that of `COc1ccc(C(=O)/C=C/N(C)C)cc1OC`, -0.0348; in that of `O=C(NC(c1ccccc1)c1ccccc1)c1ccc(Br)o1`, -0.00121.
`Cn1nnc2cc(C(=O)NCCC3=CCCCC3)ccc21`: the z-score is -0.253.
In the case of `COc1cc(NC(=O)CN2CCC(C)CC2)c(C)cc1[N+](=O)[O-]`, the z-score was -0.408.
In the case of `CCCOc1nnnn1-c1ccccc1`, the z-score is -0.0841.
As for `Cc1nc2ccc(NC(=S)NC3CC3)cc2nc1C`, the z-score was 0.116.
In turn, `Cc1ccc(NC(=O)CN(C)S(=O)(=O)c2cnc[nH]2)cc1C` had a z-score of 2.45.
The molecule `CC(=O)/C(C#N)=C1\NC(=O)C(Cc2ccc(C)c(C)c2)S1` (centres undefined) returned a z-score of -0.263.
With `CCCCCc1c(C)nc(Nc2ccc(F)cc2)[nH]c1=O`, the z-score was found to be 0.327.
On to `Cn1c(-c2ccc(Br)o2)nc2ccccc21`, for which the z-score was -0.202.
As for `COCc1nnc(NC(=O)CS(=O)(=O)Cc2ccccc2)s1`, the z-score came out at 0.253.
Molecule `CC(C)NC(=O)C(=O)NNC(=O)C12CC3CC(CC(C3)C1)C2` came in with a z-score of 1.02.
In the case of `Cc1ccccc1NC(=O)c1ccc2c(c1)OCCO2`, the z-score came out at 0.532.
`Cc1nnsc1SCCNC(=O)c1ccc(F)cc1` returned a z-score of -0.0218.
The same measure for `Cc1csc(NC(=O)c2cc(-c3ccco3)nc3ccccc23)n1`: -0.115; for `CC1CCCN(C(=O)C23CCC(C)(C(=O)C2)C3(C)C)C1` (centres undefined): -0.587.
For `Cc1cccc(NN=C2c3ccccc3-c3ccccc32)c1`, the z-score was 0.327.
Regarding `Cc1ccn2cc(CNC(=O)c3cccs3)nc2c1`, the z-score was -0.224.
As for `CCOC(=O)c1cnc(SC)nc1Sc1ccccc1`, the z-score came out at 0.18.
Molecule `COc1cc(CNCc2ccccn2)ccc1OCC(N)=O` registered a z-score of 0.0302.
For the molecule `CC(C)(C(=O)c1ccccc1)/[N+]([O-])=C/c1ccccc1F`, the z-score was -0.172.
In the case of `CC(=O)Nc1ccc2[nH]c(C)c(CC=C(Cl)Cl)c(=O)c2c1` it was -0.48; in that of `CC(C)(C)CC(=O)Nc1nnc(C(F)(F)F)s1`, -0.203; in that of `COc1ccccc1NC(=O)c1ccc(-c2ccc(Br)cc2)o1`, -0.099.
In turn, `COc1ccccc1N1CCN(C(c2ccccc2)c2nnnn2CCc2ccccc2)CC1` (centres undefined) yielded a z-score of -0.391.
In turn, `O=c1c2ccccc2c(-c2ccc(Br)cc2)nn1Cc1ccccc1` had a z-score of -9.07e-05.
The same measure for `O=C(CSc1nc2ccccc2s1)NNC(=O)Nc1ccc(Cl)c(Cl)c1`: -0.0417.
The molecule `CC1CCCCN1C(=O)Cn1cc(C(=O)c2ccco2)c2ccccc21` (centres undefined) showed a z-score of -0.13.
`COC(=O)c1ccc(NC(=O)CCc2c(C)nc3ncnn3c2C)cc1` displayed a z-score of -0.192.
On to `CCCN1C(=O)c2ccc(C(=O)NCc3ccco3)cc2C1=O`, for which the z-score was -0.102.
Molecule `COc1cc(/C=N/Nc2cc(C)nc(NS(=O)(=O)c3ccc(C)cc3)n2)ccc1O` registered a z-score of -0.382.
`CCc1c(C)nc2cc(-c3cc(OC)cc(OC)c3)nn2c1N1CCN(CCN2CCOCC2)CC1` showed a z-score of 0.147.
Molecule `CC(C)CC(=O)Nc1nc2ccc(S(=O)(=O)N3CCOCC3)cc2s1` had a z-score of -0.0017.
The same measure for `COc1cc2c(cc1OC)-c1nnnn1C(C)(C)C2`: -0.0339; for `COc1ccc(CC(=O)N2CC3(C)CC2CC(C)(C)C3)cc1` (centres undefined): -0.196.
In the case of `COc1ccc(CCNc2nc(=O)[nH]nc2C)cc1OC`, the z-score stood at 0.238.
In the case of `Cc1cc(N2CCC(C)CC2)nc2cccc(O)c12`, the z-score was found to be 0.156.
`Cn1c(CCNC(=O)c2cccs2)n[nH]c1=S` came in with a z-score of 0.112.
Molecule `Cn1c(NCc2cccnc2)nc2c1c(=O)n(Cc1ccccc1F)c(=O)n2C` gave a z-score of 0.199.
`CN(C1CCCCC1)S(=O)(=O)c1ccc(NC(=S)NC(=O)c2cccs2)cc1` displayed a z-score of 2.93.
For the molecule `COc1ccc(-c2nnc(SCC(=O)c3ccc4c(c3)OCCO4)o2)cc1`, the z-score was -0.00352.
The same measure for `CN(/C(=N\S(=O)(=O)c1ccccc1)C(F)(F)F)c1ccccc1`: -0.34.
Take `COc1ccc(Nc2ccc(N3C(=O)CCCC3=O)cc2[N+](=O)[O-])c(OC)c1`: the z-score was -0.123.
The same measure for `COc1ccccc1NC(=O)CSc1nccc(=O)[nH]1`: 0.206; for `CC(C)(C)c1ccc(C(=O)NC(=S)Nc2nc3c(s2)CCCC3)cc1`: 1.95.
Consider `CCN(CC)c1ccc2c(c1)OC(N)=C(C#N)C2c1cccnc1` (centres undefined), for which the z-score is -1.34.
In the case of `CC(C)NC(=O)COc1ccc(S(=O)(=O)N2CCOCC2)cc1`, the z-score was determined as 0.359.
In the case of `Cc1ccsc1/C=C/c1ccc2ccccc2n1` it was -0.206; in that of `Cc1ccc(NC(=O)N2CCC(c3nc4c(nnn4Cc4c(F)cccc4Cl)c(=O)[nH]3)CC2)cc1`, -0.8.
Turning to `O=C(CCNc1ccccc1)c1cccc([N+](=O)[O-])c1`, the z-score was -0.134.
`CC(/C=N/Nc1nncc(=O)[nH]1)=C\c1ccccc1` returned a z-score of -0.244.
In the case of `Cc1ccccc1NS(=O)(=O)c1cc(C(=O)Nc2cccc([N+](=O)[O-])c2)ccc1C`, the z-score is -0.256.
In the case of `COC(=O)CN1C(=O)C(O)(CC(=O)c2ccc(Br)cc2)c2ccccc21` (centres undefined) it was -0.209.
In turn, `Cc1cc(C)cc(NC(=S)NCCCN2CCOCC2)c1` had a z-score of -0.183.
In turn, `COCCN1C=C(C(=O)OC)C(c2cc(Br)c(OC)c(OC)c2)C(C(=O)OC)=C1` gave a z-score of -0.0355.
In the case of `CNc1nc(OCC(F)(F)F)nc(N2CCOCC2)n1` it was -0.112.
`Cc1ccc2cc3c(NC(=O)C4CCCO4)nn(CC(C)C)c3nc2c1` (centres undefined) yielded a z-score of -0.308.
Consider `CCC(C)NC(=O)CNC(=S)N(Cc1ccccc1)Cc1cccnc1` (centres undefined), for which the z-score was -0.198.
As to `Cc1cc(NC(=O)CSc2nnc(C3CC3)n2N)no1`, the z-score is -0.949.
For the molecule `COCCCNC(=O)Cn1cc(C(=O)c2cccs2)c2ccccc21`, the z-score is -0.786.
For `CC(C)NC(=O)c1ccc(COCC(F)(F)F)cc1`, the z-score was -0.258.
The same measure for `Cc1nnc(SCC(=O)Nc2ccccc2)[nH]c1=O`: 0.599; for `CSC1=C(C#N)C(c2ccccc2Cl)C2=C(N1)c1ccccc1C2=O` (centres undefined): -0.988.
In the case of `CCOC(=O)C1(C(C)(C)CC)CC(CSc2nc3ccccc3[nH]2)OC1=O` (centres undefined) it was 0.329.
With `Cn1nc(C(=O)Nc2ccc(S(=O)(=O)N3CCCC3)cc2)ccc1=O`, the z-score amounted to 0.245.
`Cc1ccc(C(=O)NC(=S)NCCN2CCOCC2)cc1` registered a z-score of 0.477.
`CC(NC(=O)c1ccccc1Cl)C1COc2ccccc2O1` (centres undefined) gave a z-score of -0.205.
The molecule `CCN1CCN(S(=O)(=O)c2ccc(C)c([N+](=O)[O-])c2)CC1` returned a z-score of -0.169.
For the molecule `CC(=O)N1CCN(c2ccc(N=Cc3c(O)n(Cc4ccccc4)c(=O)[nH]c3=O)cc2)CC1`, the z-score was -0.266.
Molecule `CC1=C(C#N)C(C(F)(F)F)(C(F)(F)F)N=C(c2ccco2)N1` yielded a z-score of 0.283.
In the case of `O=C(NCc1cccc(Cl)c1)c1cccc(C(F)(F)F)c1` it was -0.539.
`CCN1C(=O)c2cccc3c(NS(=O)(=O)c4ccc(NC(C)=O)cc4)ccc1c23` registered a z-score of -1.52.
In turn, `O=C(Nc1ccc(Cn2cccn2)cc1)c1ccc(COc2cccc(Br)c2)cc1` yielded a z-score of -0.354.
In the case of `CCOC(=O)CN1C(=O)S/C(=C/c2ccc3c(c2)n(C)c(=O)n3C)C1=O` it was -0.23; in that of `CCN(CCCNC(=O)C1CCC(=O)N1Cc1ccccc1Cl)c1cccc(C)c1` (centres undefined), -0.84.
Molecule `O=C(NCCCN1CCOCC1)c1cc(-c2ccccc2)on1` gave a z-score of -0.329.
